# Measurements reported in the supplement of paper PMC10037445.
# Whole data set: some 2,900 compounds, median “NF-kB SEAP reporter activity, fold change vs agonist alone” near 0.99, cut for the highest 2% near 2.6. The list shows a part of the results.
# How the values were obtained:
# RAW-Dual [1] = assay: NF-kB SEAP reporter activity, fold change vs agonist alone; higher = enhanced NF-kB activity; details: library stock concentration (final ~1000-fold dilution): 10 mM, cytotoxicity flag (confluency mask): not cytotoxic
# Outline: (§1)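 Library stock was pin-tooled at 50 nL into 384-well plates of RAW-Dual macrophages (50,000 cells/well, DMEM), followed 1 h later by a PRR agonist, and the cells were kept at 37 °C, 5% CO2. Supernatant collected after 20 hours was read for IRF by QuantiLuc luminescence and for NF-κB by QuantiBlue absorbance at 620 nm. Reporter activity is fold change over agonist-alone wells, and a well counted as cytotoxic when its IncuCyte confluency was below 70% of agonist controls in both mask sets.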
# RAW-Dual [2] = assay: NF-kB SEAP reporter activity, fold change vs agonist alone; cytotoxicity flag (confluency mask): not cytotoxic; higher = enhanced NF-kB activity
# Outline: as §1
# [3] = agonist: ODN 1826 (TLR9) 0.5 ug/mL
# [4] = agonist: Pam2CSK4 (TLR2/6) 0.1 ug/mL
# [5] = agonist: Pam3CSK4 (TLR2/1) 0.1 ug/mL
Structure (SMILES),NF-kB SEAP reporter activity (RAW-Dual [1]; agonist: Imiquimod (TLR7) […]),NF-kB SEAP reporter activity (RAW-Dual [1]; agonist: MPLA (TLR4) […]),NF-kB SEAP reporter activity (RAW-Dual [2]; agonist: LPS (TLR4) 0.1 ug/mL),NF-kB SEAP reporter activity (RAW-Dual [2]; [3]),NF-kB SEAP reporter activity (RAW-Dual [2]; [4]),NF-kB SEAP reporter activity (RAW-Dual [2]; [5])
Cl.Cl.NC1(c2ccc(-c3nc4ccn5c(=O)[nH]nc5c4cc3-c3ccccc3)cc2)CCC1,1.91,2.3,,,,
Cl.Cl.NC1(c2ccc(-c3nc4ccn5c(=O)[nH]nc5c4cc3-c3ccccc3)cc2)CCC1 (library stock concentration (final ~1000-fold dilution): 10 mM),,,0.456,0.275,0.812,0.641
O=c1cc(-c2ccc(O)cc2)oc2cccc(O)c12 (library stock concentration (final ~1000-fold dilution): 10 mM),,,1.55,1.15,1.09,1.82
O=c1cc(-c2ccc(O)cc2)oc2cccc(O)c12,1.07,1.37,,,,
CC(C)c1cc(-c2ccc(F)c3ccccc23)nc(N)n1,1.16,0.967,,,,
CC(C)c1cc(-c2ccc(F)c3ccccc23)nc(N)n1 (library stock concentration (final ~1000-fold dilution): 10 mM),,,1.32,1.15,1.15,1.38
Cc1cc(C)c(/C=C2\C(=O)Nc3ccccc32)[nH]1 (library stock concentration (final ~1000-fold dilution): 10 mM),,,0.837,0.52,0.562,0.426
Cc1cc(C)c(/C=C2\C(=O)Nc3ccccc32)[nH]1,0.587,0.685,,,,
CN1CCC(=C2c3ccccc3CC(=O)c3sccc32)CC1.O=C(O)/C=C/C(=O)O (library stock concentration (final ~1000-fold dilution): 10 mM),,,1.23,0.501,1.01,1.01
CN1CCC(=C2c3ccccc3CC(=O)c3sccc32)CC1.O=C(O)/C=C/C(=O)O,1.02,1.1,,,,
O=c1cc(O)c(Cl)c[nH]1,1.07,1.01,,,,
O=c1cc(O)c(Cl)c[nH]1 (library stock concentration (final ~1000-fold dilution): 10 mM),,,1,1.06,0.973,1.03
COc1ccccc1OCCN.Cl (library stock concentration (final ~1000-fold dilution): 10 mM),,,0.978,0.988,0.94,1.13
COc1ccccc1OCCN.Cl,0.984,1.08,,,,
N#Cc1cc(-c2n[nH]c(-c3ccncc3)n2)ccn1 (library stock concentration (final ~1000-fold dilution): 10 mM),,,1.09,1.05,1.12,1.19
N#Cc1cc(-c2n[nH]c(-c3ccncc3)n2)ccn1,1.03,1.03,,,,
Cc1c(F)cc(C(=O)NC2CC2)cc1-c1ccc(C(=O)NCC(C)(C)C)cn1,0.854,1.7,,,,
Cc1c(F)cc(C(=O)NC2CC2)cc1-c1ccc(C(=O)NCC(C)(C)C)cn1 (library stock concentration (final ~1000-fold dilution): 10 mM),,,1.44,0.852,0.455,0.538
